From PubChem BioAssay (Tox21)
Several values for one entry are separate records, joined by “and”; a condition that tells them apart may be missing. Equal entries are not always repeated. Inconclusive results, whose numbers are uncertain, are shown with a selection of clear calls. A potency beside an inconclusive call is a rough fit, not a confirmed value. The source holds several records for some structures; these can differ, active in one and inactive in another. Activity calls are given as the source filed them. Calls follow the shape of the dose curve; as a rule, active = well fitted cell-killing curve with a large enough effect in the repeat runs; inconclusive = weak or mixed curves, or effect the other way; inactive = flat fitted curve, though single readings scatter.

assay: qHTS assay to identify small molecule agonists of the estrogen receptor beta (ER-beta) signaling pathway - cell viability counter screen (AID 1259380); conditions: ER-beta-bla HEK293T viability, CellTiter-Glo luminescence, 16 h; series mostly up to 92.4 µM; also: nearly all actives have a fitted effect of over 30% in size
Excerpt: National Center for Advancing Translational Sciences [NCATS]
NIH Chemical Genomics Center [NCGC]
U.S. Environmental Protection Agency [EPA]
National Institutes of Environmental Health Sciences [NIEHS]
National Toxicology Program [NTP]
U.S. Food and Drug Administration [FDA]
Estrogen receptor (ER), a nuclear hormone receptor, plays an important role in development, metabolic homeostasis and reproduction. Two subtypes of ER, ER-alpha and ER-beta, have similar expression patterns with some uniqueness in both types. Endocrine disrupting chemicals (EDCs) and their interactions with steroid hormone receptors like ER causes disruption of normal endocrine function. To identify the compounds that activate ER signaling, an ER beta-UAS-bla GripTite cell line (Life Technologies, Madison, WI, USA) containing a beta-lactamase reporter gene under the control of an UAS response element was used to screen Tox21 10K compound library. The cytotoxicity of the Tox21 compound library against the ER-beta-bla cell line was tested in parallel by measuring the cell viability using CellTiter-Glo assay in the same wells.
Tox21 Assay Protocol Summary:
ER-beta-UAS-bla HEK293T cells were dispensed at 2,000 cells/5 uL of assay medium containing 2% charcoal stripped FBS per well into black wall/clear-bottom 1536-well plates using a Multidrop Combi (ThermoFisher Scientific, Waltham, MA) dispenser. After the assay plates were incubated at a 37C and 5% CO2 for 6 hr, 23 nL of compounds dissolved in DMSO, positive controls or DMSO only was transferred to the assay plate by a Pintool station (Kalypsys, San Diego, CA). The plates were incubated at 37C and 5% CO2 for 16 hr. Then 1 uL of LiveBLAzerTM B/G FRET substrate was added using a BioRAPTR FRD (Flying Reagent Dispenser, Aurora Discovery, San Diego, CA) and then the plates were incubated at room temperature for 2 hours, and fluorescence intensity was measured by an Envision plate reader (PerkinElmer, Shelton, CT). For cell viability readout that measures cytotoxicity, 4 uL/well of CellTiter-Glo reagent was added into the assay plates using a FRD. After 30 min incubation at room temperature, the luminescence intensity in the plates was measured using a ViewLux (PerkinElmer) plate reader.
Potency is read from the fitted curve at half-maximal effect; tags tell the direction and shape of the fitted curve.

Row | Structure (SMILES) | Potency
1 | NNC(=O)c1cccc(C(=O)NN)c1 | inconclusive: 43.3 µM [cytotoxic, partial curve]
2 | CCN(CC)CCOc1ccc(C(O)(Cc2ccc(Cl)cc2)c2ccc(C)cc2)cc1 (stereo not given) | active: 26.6 µM
3 | c1cc(N(CC2CO2)CC2CO2)ccc1OCC1CO1 (stereo not given) | inconclusive: 13.7 µM [cytotoxic, partial curve, poor fit]
4 | CCOC(=O)C1=C(C)NC(C)=C(C(=O)OC)C1c1cccc(Cl)c1Cl (stereo not given) | inconclusive: 13.3 µM [rising, full curve]
5 | COC(=O)CS | inconclusive: 65.9 µM [cytotoxic, single point]
6 | CCCCOCCOC(=O)c1ccccc1C(=O)OCCOCCCC | inconclusive: 17.2 µM [cytotoxic, partial curve, poor fit]
7 | Cc1c(C(N)=O)cc([N+](=O)[O-])cc1[N+](=O)[O-] | inactive
8 | CCC(=O)O[C@H]1[C@H](O[C@@H]2[C@@H](C)[C@H](O[C@H]3C[C@@](C)(OC)[C@@H](O)[C@H](C)O3)[C@@H](C)C(=O)O[C@H](CC)[C@@](C)(O)[C@H](O)[C@@H](C)C(=O)[C@H](C)C[C@@]2(C)O)O[C@H](C)C[C@@H]1N(C)C | active: 36.1 µM
9 | Nc1ccc(S(=O)(=O)NCc2ccccc2)cc1 | inconclusive: 26.6 µM [cytotoxic, partial curve, poor fit]
10 | c1cc(C(c2ccc(OCC3CO3)cc2)C(c2ccc(OCC3CO3)cc2)c2ccc(OCC3CO3)cc2)ccc1OCC1CO1 (stereo not given) | inconclusive: 79.8 µM [cytotoxic, partial curve] and inconclusive: 38.5 µM [cytotoxic, partial curve]
11 | Cc1ccc(N)cc1O | inconclusive: 48.6 µM [cytotoxic, partial curve]
12 | CNC(=S)NN | active: 17.2 µM
13 | CCCCN(CCN(CCCC)C(=O)N1CCOCC1)C(=O)N1CCOCC1 | inactive
14 | OCCOCCN1CCN(C(c2ccccc2)c2ccc(Cl)cc2)CC1 (stereo not given) | active: 30.2 µM and inconclusive: 5.96 µM [cytotoxic, partial curve]
15 | CCCCC1C(=O)N(c2ccccc2)N(c2ccc(O)cc2)C1=O (stereo not given) | active: 23.7 µM
16 | Nc1ccc(O)cc1 | inconclusive: 31.8 µM [cytotoxic]
17 | O=C1c2cccc(O)c2C(=O)c2c(O)cccc21 | inconclusive: 12.3 µM [cytotoxic, full curve] and inconclusive: 11.9 µM [cytotoxic, full curve]
18 | CC1CCC(C(C)CS)CC1S (stereo not given) | inactive
19 | CC(C)(C)C(=O)OCOC(=O)C1N2C(=O)CC2S(=O)(=O)C1(C)C (stereo not given) | inconclusive: 21.1 µM [rising, partial curve, poor fit]
20 | CC1CCCCN1CCCOC(=O)c1ccc(OC2CCCCC2)cc1 (stereo not given) | inconclusive: 0.473 µM [cytotoxic, full curve]

Row | Structure (SMILES) | Potency
21 | NC(=NCCCCCCN=C(N)/N=C(\N)Nc1ccc(Cl)cc1)/N=C(\N)Nc1ccc(Cl)cc1 | inconclusive: 21.1 µM [cytotoxic, partial curve]
22 | C=CCNc1nc(NCC=C)nc(N2CCN(C(c3ccc(F)cc3)c3ccc(F)cc3)CC2)n1 | inconclusive: 0.188 µM [rising, full curve]
23 | Cc1ccc(NC(N)=O)cc1 | inactive
24 | CC(=O)CCCCn1c(=O)c2c(ncn2C)n(C)c1=O | inactive
25 | C=C(C)C(=O)O | inconclusive: 69.8 µM [rising, partial curve, poor fit]
26 | C=CC(=O)OCCCC | inactive
27 | C=CC(=C)CCCC(C)(C)OC(C)=O | inactive
28 | CN1CCCC(CC2c3ccccc3Sc3ccccc32)C1 (stereo not given) | active: 18.8 µM
29 | CC(C)(O)C#CC(C)(C)O | inactive
30 | NCCc1cnc[nH]1 | inactive
31 | CCc1cc(C(C)(C)C)c(O)c(C(C)(C)C)c1 | inactive
32 | O=C1OC2(c3cc(Br)c(O)c(Br)c3Oc3c2cc(Br)c(O)c3Br)c2c(Cl)c(Cl)c(Cl)c(Cl)c21 | inconclusive: 68.7 µM [cytotoxic, single point]
33 | COC(=O)CCCC(=O)OC | inconclusive: 0.241 µM [cytotoxic, single point]
34 | O=C(O)Cc1cn(-c2ccccc2)nc1-c1ccc(Cl)cc1 | inconclusive: 33.5 µM [cytotoxic, partial curve]
35 | CCCCCCn1c(=O)c2c(ncn2C)n(C)c1=O | inactive
36 | CC(=O)OCCOCCOCCOC(C)=O | inactive and inconclusive: 13.7 µM [cytotoxic, single point]
37 | c1ccc(C(O[C@@H]2CCCN(CCc3ccc4c(c3)OCO4)C2)c2ccccc2)cc1 | inconclusive: 54.5 µM [cytotoxic, partial curve, poor fit]
38 | CN(C)CCC=C1c2ccccc2C=Cc2ccccc21 | active: 26.6 µM
39 | O=C1Cc2ccccc2N1c1c(Cl)cccc1Cl | active: 19.3 µM
40 | C/C=C/c1ccc(O)c(OC)c1 | inconclusive: 27.3 µM [cytotoxic, single point]
